Laboratory results from PubChem BioAssay AID1508623 (National Center for Advancing Translational Sciences (NCATS), 2021).
About 450 (0.94%) of roughly 48,000 compounds were called active. Another 19% or so got no clear call; they are omitted. The call rests on the fitted dose curve; in most records, active means well fitted inhibition curve with a large enough effect; inconclusive means small, poorly fitted or top-dose-only effect; inactive means no such curve, though single readings can be large or run the other way. This is one part of the list.

Test: Primary qHTS for Identification of Small Molecule Inhibitors of Huntingtin Promoter Activity; further: nearly all actives have a fitted effect of over 50% in size
Conditions: HEK293 HTT promoter firefly luciferase reporter (activity 0% = vehicle and -100% = no light), 24 h; series mostly up to 57.5 µM; activity change, negative = inhibition: at the top concentration
Outline: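 Firefly luciferase readout (Dual-Glo, 10 min RT) after 24 h, 37 °C compound exposure (final up to 57.5 uM) of HEK293 reporter cells cultured 24 h beforehand; PTC124 at 50 uM final as control inhibitor; activity scaled vehicle 0%, zero RLU -100%.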

SMILES | activity change, negative = inhibition
Cc1ccc(-c2nonc2NC(=O)c2ccco2)cc1C | inactive: -14.9%
Cc1ccc(-c2nc3ccccc3[nH]2)cc1NC(=O)COc1cccc(C)c1C | inactive: -21.3%
Cc1ccc(CNC(=O)c2ccc3c(c2)N(Cc2cccc(C)c2)C(=O)CS3)cc1 | inactive: -27.3%
Cc1oc(C)c2c(=O)cc(-c3ccc4c(c3)OCO4)cc(OC(=O)c3ccc(Cl)cc3)c12 | inactive: -9.23%
Cc1cccc(-c2[nH]ncc2-c2ccc3ncccc3n2)n1 | inactive: -8.34%
NC(CSCC(=O)O)C(=O)O (stereo unspecified) | inactive: 8.93%
CCC(Sc1nc2ccccc2c2nc(CCc3c(C)n[nH]c3C)nn12)C(=O)Nc1ccccc1F (stereo unspecified) | inactive: -24.6%
COc1ccccc1Cn1c(CNS(=O)(=O)c2cccc([N+](=O)[O-])c2)nc2cccnc21 | inactive: -17.7%
Cc1ccccc1C(=O)Nc1ccc(C(=O)N2CCCC(N(C)C)c3ccccc32)cc1 (stereo unspecified) | inactive: -23.3%
COc1ccc(C)cc1NC(=O)CCn1nc(C)cc1C | inactive: 8.35%
O=C(C=CC#Cc1cccc(NS(=O)(=O)c2ccccc2)c1)NO | inactive: -38.1%
CCN(CC)C(=O)C1=C(C)Nc2nc3ccccc3n2C1c1cccc(Cl)c1 (stereo unspecified) | inactive: -2.82%
Cc1ccc(NC(=O)Cn2c(=O)c(CNc3ccccc3)cc3cc4c(cc32)OCCO4)cc1 | inactive: -33.7%
COC(=O)c1ccc(NC(=O)CSc2n[nH]c(CC(C)C)n2)cc1 | inactive: -26.4%
COc1ccc(CNC(=O)c2cc3cccc(OC)c3oc2=O)cc1 | inactive: -10.3%
CCn1cc(C(=O)N2CCN(c3ccc(OC)cc3)CC2)c(=O)c2cc(S(=O)(=O)N(C)C3CCCCC3)ccc21 | inactive: -7.23%
COc1cccc(CNC(=O)c2nn(C)c3c2CS(=O)(=O)c2ccccc2-3)c1 | inactive: -17%
CC(=O)O[C@H]1CC[C@@]2(C)C(=CC[C@@H]3[C@@H]2CC[C@]2(C)C(C(C)=O)=CC[C@@H]32)C1 | inactive: -4.19%
COc1ccc(NC(=O)CSC2=Nc3ccccc3C3=NC(CCC(=O)NCCc4ccccc4)C(=O)N23)c(OC)c1 (stereo unspecified) | inactive: -33.4%
O=C(NCc1ccco1)c1ccc2c(c1)N(Cc1ccccc1F)C(=O)c1ccccc1S2=O (stereo unspecified) | inactive: -24.2%
Cc1cccc(OC(=O)c2cc(-c3ccc(Cl)cc3)on2)c1C | inactive: -5.02%

SMILES | activity change, negative = inhibition
CC(C)CN(CCCNC(=O)c1cn(C)c2ccc(S(=O)(=O)N(C)C3CCCCC3)cc2c1=O)CC(C)C | inactive: 88.8% [at 11.5 µM]
COc1cccc(NC(=O)C(CCSC)NC(=O)C2CCC(C)CC2)c1 (stereo unspecified) | inactive: -9.35%
CC(C)[C@@H]1CC[C@@H](C)CC1=O | inactive: 8.97%
CC(=O)c1cc2ccccc2s1 | inactive: 8.82%
CCOc1ccc(C2=CC(c3cc(Br)ccc3F)n3ncnc3N2)cc1Cl (stereo unspecified) | inactive: -11.3%
Cc1nn(CC(=O)Nc2cccc(C(F)(F)F)c2)c(=O)c2nn(-c3ccccc3)c(C)c12 | inactive: -5.25%
CCOc1ccc(-n2c(=O)c3c(C)c(C)sc3n(Cc3cc(=O)n4cc(Cl)ccc4n3)c2=O)cc1 | inactive: -22.2%
CN(C(=O)CSc1nc2ccccc2n1Cc1cccc(C(F)(F)F)c1)c1ccccc1 | inactive: 0%
O=C(COC(=O)c1cc(-c2ccccc2)nc2c(Cl)cccc12)c1ccc(F)cc1 | inactive: -19.6%
Cc1ccc(CCNC(=O)c2cc(-c3ccc(Cl)cc3)n[nH]2)cc1 | inactive: 3.66%
Cc1ccc(Nc2cc(C(=O)NCc3cccs3)c3ccccc3n2)c(C)c1 | inactive: 6.44%
Cc1ccc(NC(=O)c2ccc3[nH]c(C)cc(=O)c3c2)c(C)c1 | inactive: -10.2%
Cc1ccc(NC(=O)Cc2coc3c(C)c(C)ccc23)cc1Cl | inactive: -15.8%
COc1ccccc1CN1CCN(C2CCN(C(=O)NC(C)C)CC2)C(=O)C1=O | inactive: 17.1%
COc1cc2ccccc2cc1C(=O)Nc1ccc2oc(-c3ccccc3)nc2c1 | inactive: 6.2%
CCc1ccc2c(c1)-c1ccccc1S(=O)(=O)N2CC(=O)N1CCC(C)CC1 | inactive: 16%
Cc1ccccc1CNC(=O)CCC(=O)N1CC2CCCN2c2ccccc21 (stereo unspecified) | inactive: -26.2%
CC1CCN(S(=O)(=O)c2ccc3c(c2)N(CC(=O)N2CCN(c4ccccc4)CC2)C(=O)CO3)CC1 | inactive: -24%
CC(=O)c1ccc(NC(=O)Cn2ncc3c(C)n(Cc4ccc(F)cc4)c(C)c3c2=O)cc1 | inactive: -8.4%
COc1ccccc1C(=O)Nc1nc2nc(C)c(Cc3ccccc3)c(=O)n2[nH]1 | inactive: -4%
COc1cccc(Cn2c(CNS(=O)(=O)c3ccc4c(c3)CCCC4)nc3cccnc32)c1 | inactive: -11.1%

SMILES | activity change, negative = inhibition
CCN(CC)C(=O)CSc1nc2ccccc2c(=O)n1Cc1ccco1 | inactive: 0%
CC[C@@H]1C(=O)N(C)c2cnc(Nc3ccc(C(=O)NC4CCC(N5CCN(CC6CC6)CC5)CC4)cc3OC)nc2N1C(C)C (stereo partly specified) | inactive: -2.78%
CCCc1nccn1S(=O)(=O)c1cc(Br)ccc1OC | inactive: -13.1%
COc1cc2c(C(=O)N(C)c3cc(Cl)ccc3OC)cn(CC(C)C)c(=O)c2cc1OC | inactive: -28.9%
CCN(C(=O)Cn1c(=O)n(CC2CCC(C(=O)NC)CC2)c(=O)c2sccc21)c1ccccc1 (stereo unspecified) | inactive: -2.52%
Cc1nn(CCCC(=O)Nc2cccc(F)c2)c(=O)c2c1sc1ccccc12 | inactive: -5.66%
COc1ccc(NC(=O)CN2C(=O)CCc3cc(S(=O)(=O)N4CCOCC4)ccc32)cc1Cl | inactive: -28.4%
O=C(Nc1ccccc1)c1cn(-c2ccccc2)nc1-c1ccccc1 | inactive: -28.6%
Cc1cccc(-n2c3nc(=O)[nH]c(=O)c-3cc3c(C)nn(-c4ccccc4)c32)c1C | inactive: -8.31%
COc1ccccc1NC(=O)CSC1=Nc2ccccc2N=C(c2ccc(F)cc2)C1 | inactive: -4.86%
COC(=O)c1c(NC(=O)c2nc(SCc3cccc(C)c3)ncc2Cl)sc2c1CCCC2 | inactive: -7.98%
COc1ccc(-n2nnc(-c3nc(-c4cccs4)no3)c2N)cc1OC | inactive: 9.35%
CC(=O)N1CCCC1c1nc2ccccc2n1Cc1cccc(Cl)c1 (stereo unspecified) | inactive: -5.9%
Cc1ccc(-c2noc(-c3ccc(NCc4ccco4)c([N+](=O)[O-])c3)n2)cc1 | inactive: 10.9%
COc1cc(NC(=O)CC(c2ccc(C)cc2)N2Cc3ccccc3C2=O)cc(OC)c1 (stereo unspecified) | inactive: -15.2%
CC1=C(c2ccc(F)cc2)S(=O)(=O)NC1=NCc1ccccc1F | inactive: -22.5%
COc1ccc(-c2nc(C)c(CCNC(=O)C(=O)Nc3ccccc3C#N)s2)cc1OC | inactive: 0.202%
COc1ccccc1C(=O)Nc1nc2nc(-c3ccccc3)cc(=O)n2[nH]1 | inactive: -14.1%
CCc1nn2c(=O)cc(COC(=O)c3ccc(NC(=O)c4cccs4)cc3)nc2s1 | inactive: -9.9%
